Source: PubChem BioAssay AID504333 (National Center for Advancing Translational Sciences (NCATS), 2011)
“And” between values parts separate entries of the source, which are not always exact repeats. Equal entries are not always repeated. The whole screen tested about 360,000 compounds, of which about 16,000 (4.4%) were called active. Inconclusive results, whose numbers are uncertain, are shown with a selection of clear calls. Calls come from the whole dose curve; as a rule, active = well fitted inhibition curve with a large enough effect; inconclusive = small, poorly fitted or top-dose-only effect; inactive = no such curve, though single readings can be large or run the other way. A potency beside an inconclusive call is a rough fit, not a confirmed value.

Each molecule was assayed against Bromodomain adjacent to zinc finger domain protein 2B (Homo sapiens) (UniProt Q9UIF8) (assay: qHTS Assay for Inhibitors of BAZ2B). Settings: AlphaScreen BAZ2B-H3K14Ac peptide displacement; series mostly up to 114 µM.
UniProt Q9UIF8, sequence (Q9UIF8 whole entry, looked up, the tested form may be a part): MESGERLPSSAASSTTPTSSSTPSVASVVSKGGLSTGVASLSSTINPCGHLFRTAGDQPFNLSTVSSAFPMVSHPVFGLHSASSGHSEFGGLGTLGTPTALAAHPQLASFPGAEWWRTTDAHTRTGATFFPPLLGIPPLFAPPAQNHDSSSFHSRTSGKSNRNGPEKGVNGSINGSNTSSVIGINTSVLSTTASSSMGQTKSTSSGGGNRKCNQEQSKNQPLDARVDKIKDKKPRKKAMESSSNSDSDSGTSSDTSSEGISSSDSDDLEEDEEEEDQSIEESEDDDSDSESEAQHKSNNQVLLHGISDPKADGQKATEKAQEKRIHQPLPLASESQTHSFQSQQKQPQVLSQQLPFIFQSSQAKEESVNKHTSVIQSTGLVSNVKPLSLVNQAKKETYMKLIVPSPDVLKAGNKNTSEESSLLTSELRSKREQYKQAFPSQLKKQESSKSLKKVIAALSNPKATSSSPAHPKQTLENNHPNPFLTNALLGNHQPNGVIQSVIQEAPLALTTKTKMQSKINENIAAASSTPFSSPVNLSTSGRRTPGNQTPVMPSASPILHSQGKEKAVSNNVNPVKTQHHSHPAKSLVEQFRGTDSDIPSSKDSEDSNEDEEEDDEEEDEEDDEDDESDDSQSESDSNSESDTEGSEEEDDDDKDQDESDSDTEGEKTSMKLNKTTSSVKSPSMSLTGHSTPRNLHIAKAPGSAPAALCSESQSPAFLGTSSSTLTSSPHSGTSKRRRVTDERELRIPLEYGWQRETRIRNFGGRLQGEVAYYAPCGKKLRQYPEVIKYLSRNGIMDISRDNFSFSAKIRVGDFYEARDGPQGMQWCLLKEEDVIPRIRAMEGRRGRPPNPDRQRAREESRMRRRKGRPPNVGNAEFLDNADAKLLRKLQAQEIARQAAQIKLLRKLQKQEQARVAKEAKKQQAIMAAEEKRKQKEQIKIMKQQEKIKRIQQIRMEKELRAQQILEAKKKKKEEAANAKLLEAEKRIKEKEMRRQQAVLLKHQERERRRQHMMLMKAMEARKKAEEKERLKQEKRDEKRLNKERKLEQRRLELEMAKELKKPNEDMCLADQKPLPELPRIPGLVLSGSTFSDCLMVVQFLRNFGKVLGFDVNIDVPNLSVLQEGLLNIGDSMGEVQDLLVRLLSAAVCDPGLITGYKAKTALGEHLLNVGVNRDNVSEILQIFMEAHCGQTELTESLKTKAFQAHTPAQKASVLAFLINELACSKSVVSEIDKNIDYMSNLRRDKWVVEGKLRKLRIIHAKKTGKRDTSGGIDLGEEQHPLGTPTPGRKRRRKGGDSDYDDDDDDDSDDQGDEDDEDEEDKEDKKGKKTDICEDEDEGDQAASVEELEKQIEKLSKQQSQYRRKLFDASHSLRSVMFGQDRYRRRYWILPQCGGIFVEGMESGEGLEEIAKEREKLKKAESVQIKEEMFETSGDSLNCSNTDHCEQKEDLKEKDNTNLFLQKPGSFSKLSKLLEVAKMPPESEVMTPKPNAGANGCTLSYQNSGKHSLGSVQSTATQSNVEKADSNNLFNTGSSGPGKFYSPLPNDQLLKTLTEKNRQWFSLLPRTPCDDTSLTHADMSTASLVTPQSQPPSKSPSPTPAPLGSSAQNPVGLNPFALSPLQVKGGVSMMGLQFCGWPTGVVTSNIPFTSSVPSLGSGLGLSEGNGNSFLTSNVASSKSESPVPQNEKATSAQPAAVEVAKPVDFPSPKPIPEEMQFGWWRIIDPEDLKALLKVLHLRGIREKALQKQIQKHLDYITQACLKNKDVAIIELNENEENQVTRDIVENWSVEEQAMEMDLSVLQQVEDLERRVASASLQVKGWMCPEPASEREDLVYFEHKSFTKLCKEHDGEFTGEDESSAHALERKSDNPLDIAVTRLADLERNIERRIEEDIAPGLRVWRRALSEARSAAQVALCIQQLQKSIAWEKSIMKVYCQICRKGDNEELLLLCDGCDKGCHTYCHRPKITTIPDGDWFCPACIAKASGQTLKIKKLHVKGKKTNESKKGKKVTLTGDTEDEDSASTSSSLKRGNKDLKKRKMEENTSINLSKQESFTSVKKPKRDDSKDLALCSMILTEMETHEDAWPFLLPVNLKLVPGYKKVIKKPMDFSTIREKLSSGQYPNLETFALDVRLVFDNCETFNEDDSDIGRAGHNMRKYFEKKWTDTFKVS
Procedure, shortened: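 Compounds, titrated to a top concentration of 110 uM, were incubated 30 min at room temperature with preformed BAZ2B/acetyl-K14 H3 peptide complex (50 nM each). Proximity signal was measured by AlphaScreen after 20 min with beads.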
Note: nearly all actives have a fitted effect of over 60% in size.
Potency is the fitted concentration of half-maximal effect; tags give direction and shape of the fitted curve.

Compound | Potency
CCOC(=O)c1cnc2ccc(F)cc2c1Nc1ccc2c(c1)OCCO2 | inconclusive: 28.2 µM [inhibitor, full curve, poor fit]
COc1cc(/C=N/NC(=O)C2COc3ccccc3O2)cc(OC)c1OC (stereo unspecified) | inactive
Cc1ccc(C(=O)C(=O)c2ccc(C)c(N)c2)cc1N | inconclusive: 50.1 µM [inhibitor, partial curve]
Oc1ccc(/C=N/Nc2ccc(Cl)nn2)c(O)c1O | active: 10 µM
O=C1/C(=C/Nc2cccc([N+](=O)[O-])c2)CCc2ccccc21 | inconclusive: 35.5 µM [inhibitor, full curve]
CCOC(=O)Nc1sc(C)c(C)c1C(N)=O | inactive
CC1(C)CC(=O)C2=C(C1)N=C1c3ccccc3C(=O)C1C2c1ccc(Cl)cc1 (stereo unspecified) | active: 12.6 µM
COc1ccc(N2CCN(CC(O)COc3ccc(C(C)(C)C)cc3)CC2)cc1 (stereo unspecified) | inconclusive: 79.4 µM [inhibitor, single point]
O=C1OC(Nc2ccc3c(c2)OCO3)c2ccccc21 (stereo unspecified) | active: 39.8 µM
Cc1ccc(N=Nc2ccc(O)c3ncccc23)cc1 | inconclusive: 7.94 µM [inhibitor, full curve]
Cc1ccc(CN2CCC(CNc3ncnc4onc(-c5ccc(Cl)cc5)c34)CC2)cc1 | inactive
COc1cc2c3c(c1)C1(C(=O)N3C(C)(C)C=C2C)C(C#N)=C(N)Oc2cc(C)oc(=O)c21 (stereo unspecified) | inconclusive: 89.1 µM [inhibitor, single point]
Cc1csc(SCC(=O)Nc2ncc(Cl)c(C)c2Cl)n1 | inconclusive: 89.1 µM [inhibitor, single point]
CN(C)S(=O)(=O)c1cccc(NC(=O)CN2C(=O)NC(Cc3c[nH]c4ccccc34)C2=O)c1 (stereo unspecified) | inconclusive: 79.4 µM [inhibitor, single point]
CC(Oc1ccccc1)C(=O)Nc1nc2ccc(S(N)(=O)=O)cc2s1 (stereo unspecified) | inactive
O=C(c1ccc(-c2ccccc2)cc1)N1CCN(c2ccccn2)CC1 | inconclusive: 100 µM [inhibitor, partial curve]
OC(CNCCc1ccc(C(F)(F)F)cc1)COC(c1ccccc1)c1ccccc1 (stereo unspecified) | active: 25.1 µM
Cc1cc2c(cc1S(=O)(=O)NCc1ccc(N(C)C)cc1)OCC(=O)N2 | inconclusive: 79.4 µM [inhibitor, partial curve] and inconclusive: 89.1 µM [inhibitor, single point]
Cc1cc(C(=O)CSc2nc(N)cc(N)n2)c(C)n1CCc1ccc(F)cc1 | inconclusive: 50.1 µM [inhibitor, partial curve]
O=C(NNC(=S)NC(=O)c1cn(-c2ccccc2)nc1-c1ccccc1)c1ccncc1 | inconclusive: 79.4 µM [inhibitor, single point]
CN(Cc1ccccc1)c1ccc(C(=O)O)cc1[N+](=O)[O-] | inactive
O=C(COC(=O)c1cccc(NS(=O)(=O)/C=C/c2ccccc2)c1)Nc1ccccc1OC(F)F | inactive
Cc1c(N=NC2=C(O)CC(C)(C)CC2=O)c(=O)n(-c2ccccc2)n1C | active: 35.5 µM
Cc1ccc(-c2nc(CSCC(=O)N3CCCC3)c(C)o2)cc1 | inconclusive: 100 µM [inhibitor, single point]

Compound | Potency
COc1ccc(-c2[nH]ncc2CN2CCC(N3CCSCC3)CC2)c(F)c1 | inactive
Cc1ccc2[nH]c3nc(N/N=C/c4cccc(O)c4)nnc3c2c1 | inconclusive: 89.1 µM [inhibitor, single point]
COc1ccc(CN2CCCC(C(=O)c3cccc(OC(C)C)c3)C2)cc1Cn1cccn1 (stereo unspecified) | inconclusive: 89.1 µM [inhibitor, single point]
O=C(NCc1ccccn1)c1ccc(Cn2cc(Br)cn2)o1 | inconclusive: 89.1 µM [inhibitor, single point]
CC(=Nc1cccc(O)c1)c1sc2ccccc2c1O | active: 39.8 µM
CCOC(=O)c1cc(COc2cc(Cl)cc(Cl)c2)on1 | inactive
Cc1ccc(C)c(N2C(=O)c3cc(N4CCOCC4)c([N+](=O)[O-])cc3C2=O)c1 | inconclusive: 14.1 µM [inhibitor, full curve, poor fit]
COc1ccc(Cc2nc3ccccc3n2C)cc1 | inconclusive: 89.1 µM [inhibitor, single point]
COc1cccc(-n2ccnc2SCC(=O)Nc2cccc(C)c2C)c1 | inconclusive: 15.8 µM [inhibitor, partial curve]
NC(=S)N/N=C/c1ccccc1OC(=O)c1cc2ccccc2oc1=O | inconclusive: 70.8 µM [inhibitor, partial curve]
Cc1cc(O)c(C=Nc2ccc(N3CCOCC3)cc2)c(C)c1Cl | inconclusive: 7.94 µM [inhibitor, full curve, poor fit]
CN1CC(c2ccccc2)C2(SC(=S)N(Cc3ccco3)C2=O)C12C(=O)Nc1ccccc12 (stereo unspecified) | inconclusive: 70.8 µM [inhibitor, single point]
CS(=O)(=O)c1cnc2c(S(=O)(=O)c3ccccc3)cnn2c1N | inactive
CCc1ccccc1N(CC(=O)NC(C)(C)CC)C(=O)CCC(=O)Nc1nccs1 | inconclusive: 89.1 µM [inhibitor, single point]
N#CC1=C(N)Oc2c(O)cc3ccccc3c2C1c1ccsc1 (stereo unspecified) | inconclusive: 79.4 µM [inhibitor, single point]
COCCNC(=S)N1CCc2cc(OC)c(OC)cc2C1COc1cc(C)cc(C)c1 (stereo unspecified) | inconclusive: 50.1 µM [inhibitor, partial curve]
COCCNC(=O)c1ccccc1NC(=O)c1cccc([N+](=O)[O-])c1C | inactive
COc1ccc(OC)c(C(=O)c2ccc(C(=O)c3cc(OC)ccc3OC)cc2)c1 | inactive
Cc1nnc(N/N=C/c2cccc(OCc3ccc(Cl)c(Cl)c3)c2)n1N | inconclusive: 79.4 µM [inhibitor, single point]
COc1ccc(CNC(=O)CCNC(=O)N2CCn3c2nc2ccccc23)cc1 | inactive
CNC(=S)N(C1=NCC(c2ccc([N+](=O)[O-])cc2)S1)c1ccccc1 (stereo unspecified) | inconclusive: 14.1 µM [inhibitor, partial curve, poor fit]
CC(=O)NC1C(=O)N(CCc2ccccc2)c2ccc(Br)cc21 (stereo unspecified) | inactive
O=C(CSc1nc2ccccc2c2nc(-c3ccccc3)nn12)Nc1ccc(Br)cc1 | inactive
Cc1[nH]c2ccccc2c1C(c1ccncc1)N1CCN(c2ccccn2)CC1 (stereo unspecified) | inconclusive: 79.4 µM [inhibitor, partial curve]

Compound | Potency
COC(=O)C1CCN(S(=O)(=O)c2cc3c4c(c2)C(C)C(=O)N4CCC3)CC1 (stereo unspecified) | inactive
O=[N+]([O-])c1ccccc1OCCCn1cnc2ccccc21 | active: 22.4 µM
COc1ccc(N=C2S/C(=C\c3ccc(OC(C)C(=O)O)c(OC)c3)C(=O)N2CCc2c[nH]c3ccccc23)cc1 (stereo unspecified) | active: 22.4 µM
Cc1ccc2cc(CN(Cc3ccco3)C(=S)NCC3CCCO3)c(=O)[nH]c2c1 (stereo unspecified) | inactive
O=C(O)C(Cc1ccccc1)N1C(=O)/C(=C/c2cccc3ccccc23)SC1=S (stereo unspecified) | active: 56.2 µM
Cc1ccc(-n2c(O)c(/C=N/n3cnnc3)c3ccccc3c2=O)cc1 | active: 50.1 µM
c1coc(CNc2nc(N3CCCCC3)nc3ccccc23)c1 | inconclusive: 89.1 µM [inhibitor, single point]
CN(C)c1ccc(/C=C/c2ccc3c4ccccc4ccc3[n+]2-c2ccccc2)cc1 | active: 7.94 µM
CCCn1c(SCC(=O)NC2CCCCC2)nnc1-c1ccccn1 | inconclusive: 79.4 µM [inhibitor, partial curve]
CCOCCCNC(=O)c1ccc2c(c1)N=C(CC)c1cc(Br)ccc1S2 | inconclusive: 28.2 µM [inhibitor, partial curve]
Cc1ccccc1CSCCNC(=O)CN(c1ccc2c(c1)OCO2)S(C)(=O)=O | inconclusive: 79.4 µM [inhibitor, single point]
COc1ccccc1/C=C/C(=O)NC(=S)N(C)C1CCCCC1 | inconclusive: 70.8 µM [inhibitor, single point]
C/C(=N\N=C\c1ccc(N(C)C)cc1)c1cccc([N+](=O)[O-])c1 | inconclusive: 6.31 µM [inhibitor, full curve]
CCOC(=O)c1ccc(Nc2c(-c3ccc(O)cc3)nc3nc[nH]n23)cc1 | inconclusive: 35.5 µM [inhibitor, full curve, poor fit]
COC(=O)c1ccc(N2NC(=O)/C(=C/c3cc(OC)c(O)c(OC)c3)C2=O)cc1 | active: 44.7 µM
Cc1ccccc1CS(=O)(=O)Cc1ccc(C(=O)NCCc2ccccc2)o1 | inactive
O=C(NCc1ccccc1Cl)C(=O)NCC(c1ccco1)N1CCOCC1 (stereo unspecified) | inactive
CCCc1cc(=O)[nH]c(SCc2ccc(Cl)cc2)n1 | inactive
O=C(CCCN1C(=O)/C(=C/c2cccs2)SC1=S)Nc1cccc(O)c1 | inconclusive: 44.7 µM [inhibitor, partial curve]
COc1ccccc1CNC(=O)Cn1ncc2c(=O)oc3ccc(C)cc3c21 | inactive
Cc1ccc(Nc2c(-c3ccc(C)cc3)nc3cnccn23)cc1 | inconclusive: 31.6 µM [inhibitor, full curve]
O=c1[nH]c(C2CCCN(S(=O)(=O)c3ccc(F)cc3)C2)nc2c1nnn2Cc1ccccc1 (stereo unspecified) | inconclusive: 100 µM [inhibitor, single point]
CCCCC(CC)Cn1c(O)c(/C=C2\C=NN=C2c2ccccc2)sc1=S (stereo unspecified) | inconclusive: 22.4 µM [inhibitor, partial curve]
